Measured values as given in PubChem BioAssay (NCI).
Where a structure was tested more than once in an assay, its records may differ in their call.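 Cell lines were cultured in 96-well plates, exposed to a single compound concentration, and assessed for percent growth 48 hours later.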 The source holds more than one record for some entries. This list holds those alone. How the source made its calls: active means growth percent below 10; inactive means the rest. An entry can have further records. This drug was run again and again over the years, at the concentration stated with the values; each value is one run. Brackets with × count equal records among those shown.

Key:
[1] = system: NCI-H522 lung; experiment: NCI-60 one-dose screen, 48 h (100 = growth as untreated, 0 = no growth, -100 = all killed); settings: 2.5 mM
[2] = system: A549/ATCC NSCLC; experiment: as above; settings: 2.5 mM

With `O=c1[nH]cc(F)c(=O)[nH]1` the growth ([1]; runs of 1991) was “active: -42, -40.6, -28.4, -46.5, -13.9, -16, -33.2, -57.5, 7.01, -20.1, -9.1, -35.4, -61.2, -36, 5.51, -3.49, -26.6, -63.5, -42.9%”, the growth ([1]; runs of 1992) was “active: -20, -23.9, 2.42, -34.9 (3×), -52.9, -22.3, 4, 4.52, 6.89, -22.8, -35.7, -47.5, -56.7, -58, 5.42, -11.9, -20.3, -37.1, -5.63, 6.46, -7.51, -32.2, -52, -45.5, -16.6, 5.64, -54.7 (3×), -36.7, -8.89, -61.3, -9.82, -17.4, -11, -32.8, -17.6, -6.73, -33.7, -45.8, -19.5, -54.6, -29.4, -58.9, -49.4, -38.7, -24.4, -29.8, -35.5, 9.34, -8.7, -16.7, -49.3, -44.5, -47 (2×), 5.01, -50.2, 4.81, -7.24, -19.7, 0.97, 7.86, -31.8, -43.2, -61, -32.7, -50.6, 5.84, -54.4, -18, -15.5, -21, -38, -40, -28.6, -6.33, -5.85, -11.3, -57.9, -3.18, -23.2, -51.6, -52.8, -55.1, -46.6, -34, 3.93, -9.81, -29.2, -13.6, -9.34, -39.2, -60.1, -29.1, -30.2, -25.1 (2×), -4.63, 6.32, -20.8, -51.4, 4.62, 5.15% and inactive: 14.9, 27.8, 37.6, 11.3, 11.9, 16, 12, 13.7, 21.8, 28.9, 14.1, 29%” and the growth ([1]; runs of 1993) was “active: -39.4, -11.7, 7.62, -40.2, -13.6, 8.28, -23.6, -21.5, 0.283, 4.65, -9.48, -15, -19.5, -33.9, -1.91, -48.7% and inactive: 21.7, 11.5, 67.7, 12.1, 18.6, 11.8 (2×), 18.3, 23.2, 26.5, 15.3, 10.2, 12.3, 23.9, 38.7, 18.1, 15.9, 36.3, 65.1, 13.5, 59.1, 21.3, 30, 35.7%”. The growth ([1]; runs of 1994) was “active: 0.762, -1.63, -41.8, -37.1, -35.6, -11.5, -43.8, 0, -13.6, -10.4, -51.3, -10.2, 0.411, -3.68, 1.35, 0.958% and inactive: 20, 17.5, 26.1, 29, 13.1 (2×), 24.9, 22.7, 25.6, 12.2, 46.3, 18.3, 53.3%”, the growth ([1]; runs of 1995) was “active: 7.29, -8.72, -36.2, -42.9, 4.24, -24.9, -19.2, -1.57, -1.6, -6.65, 6.51, 2.97, 6.44, -60.9, -35.1, -21.7, -4.27, -8.76, 0.121, 9.05, 0, -1.32, 1.09, -19.5, -2.56% and inactive: 16.9, 41.4, 10.1, 14.6, 11.7, 21.7, 22.3, 14.3 (2×), 12.5, 16.5, 33.5%” and the growth ([1]; runs of 1996) was “active: 4.54, -15, -39.9, 6.49, -38.2, -17.5, -18.2, 1.46, 0.101, -42.5, 7.85, -14.9, 5.92, 8.03, -20.6, -23.3, -16.3, -50.9, -2.9, -11.8, 5.36, -39.5, 6.65, -24.6, 7.69, -2.04, 8.25, 0.825, -3.28, 8.83, -16.7, 4.73% and inactive: 14.4, 37.9, 12.2, 17.4, 10.4, 15.7, 44.1, 16.9, 18.8, 15.6, 13.9, 40.9, 24.3, 14.7, 35.1, 45.4, 18.1, 46.1, 42.2%”. The growth ([1]; runs of 1997) was “active: 3.58, 9.75, -33.9, -10.7, -50.6, 2.42, -25.9, -1.47, 3, -22.7, -23.7, -15.1, -1.59, -32.6, -7.34, -9.23, -25.5 (2×), -20.1, 6.02, -20.6, -6.23, -27.8, -16.8, -15% and inactive: 26.8, 18.5, 37.2, 11.6, 19.5, 21.7, 32.6, 15.6, 35.1, 13.7%”, the growth ([1]; runs of 1998) was “active: 4.48, -6.39, -6.07, -1.6, 6.33, -22.3, 7.78, 4.09, -8.2, 8.8, -44.9, -10.3, -24.6, -7.91, -19, -38.4, 2.73, -41.6% and inactive: 13.4, 15.5, 19.5, 11.9, 25.6%” and the growth ([1]; runs of 1999) was “inactive: 33.2% and active: -38.6, -41.5, -28.2, -15.2, -5.5, -89.9, -79.1, -66.1, 2.38, -31.6, -68.7, -59.8, -59.6, -35.3%”. The growth ([1]; runs of 2000) was “active: -31.3%, 1.17%, -53.6% and inactive: 14.1%”, the growth ([2]; runs of 1991) was “active: 3.74, -15.7, 7.08, 5.87, 3.84, -7.69, 6.5, -20.3, -24.3, -6.43, -18.6, 5.32, 7.71, -20.7, -13.1, 0.993, 9.52, -6.76, -27, -16.8%” and the growth ([2]; runs of 1992) was “active: -4.7, -1.69, 5.04, 5.6, 3.51, 1.87, -34.4, -36.1, 5.11, -28.6, 7.56, -19.6, -21.2, 3.5, -31.7, -64.1, 9.3, 7.45, -37.3, 5.5, 0.128, 7.62, 5.1, -0.121, -1.08, 9.05, 0.381, 0.553, -55.2, -39.4, 4.43, 2.46, -54.7, -31.3, -12.3, 3.14, 8.97, -12.1, -40.6, -15.5, -9.63, 1.11, -3.34, -8.81, -4.17, 5.97, -38.1, -1.13, -35.4, 2.28, -21.6, 4.35, 6.98, 8.85, 4.57, -11.3, -0.193, 7.03, -42.7, 6.02, -38.7, -38.3, 1.45, -42.2, -35.2, -12, 3.69, 5.87, -1.72, -37.7, -42.8, -42.1, -9.38, -7.95, -13.4, 8.82, 2.2, 2.48, -13.5, 3.32, 3.81, -22, 4.38, -24.6, -13.7, 0.145, -41.5, 0.65, -43, 0, -27.3, 0.851% and inactive: 11.7, 22, 13.7 (2×), 30.1, 15, 45.9, 37.5, 25.4, 12.2, 16.2, 13.5, 12.1, 13.8, 10.3, 11.1 (2×), 10.9, 13, 15.2, 12.6, 13.4, 16.1, 16.7, 11.8, 15.3, 16.6, 101, 18.5%”. For the same compound, the growth ([2]; runs of 1993) was “inactive: 12.4, 14.5, 16.2, 22.2, 20.7, 16.9 (2×), 10.1, 12.7, 11.3, 14.3, 11.1, 19.2, 16.1, 10, 13.9, 20, 16.5, 11.2, 12.9, 78.9, 10.6, 11.6, 10.8, 14.6% and active: -13.3, -10.1 (2×), -16.1, 0.625, -3, 4.56, 3.75, 5.28, 7.96, -14.4, 1.67, 4.24, 0.817, 8.72, 0.778, -29.4, 4.7, -3.42, 5.66, 6.84, -8.36%”, the growth ([2]; runs of 1994) was “active: 3.09, 5.76, -0.767, -3.52, 4.25, -1.53, -18.8, 8.59, 2.71, -7.54, -2.54, 2.58, -1.61, 3.77, 9.18, 6.13, -28.2, 7.45, 9.63, -6.01, 8.26, -12.7, 9.98, 7.49, 8.62, -13.4, 7.26% and inactive: 14.4, 10.1, 12.8, 11.3, 12.1, 12.4, 14.7%” and the growth ([2]; runs of 1995) was “inactive: 11.8, 13.8, 11.3, 26.5, 14, 24.3, 15.9, 19.4, 22.1, 48.2, 16% and active: -3.59, -13.1, -31.2, 6.07, -8.82, -4.11, 3.66, 3.05, -22.3, -7.47, 6.96, 9.41, 9.05, 1.69, 2.96, 4.4, -48.7, 5.97, 8.4, 3.29, 2.75, 7.05, -19.5, -35.5, -20.1, 4.92, 7.35%”.
